Read-outs that look alike come from different tables or passages of the source.
Columns and labels:
Magnaporthe grisea = format: in vivo; conditions: for Test A (control value class, blast on rice): in vivo
Phytophthora infestans = format: in vivo; conditions: for Test F (control value class): 250 ppm spray; for Test F (control value class, late blight on tomato): 250 ppm, sprayed 2.5 ml/pot before inoculation; for Test F control value: 250 ppm sprayed before inoculation
[1] = rice blast, Magnaporthe grisea, 250 ppm spray
[2] = late blight on tomato, Phytophthora infestans, 5-10 days after inoculation
[3] = evaluated 5-10 days after inoculation
[4] = Late blight on tomato, 5-10 days after inoculation

Row | SMILES | Test A (control value class) (Magnaporthe grisea; [1]) | Test F (control value class) (Phytophthora infestans; [2]) | further results
1 | CCn1c(-c2c(F)cccc2F)c(-c2cc(F)ccc2F)ccc1=O [Compound 478] | H (H shows more than 50% of control values) | H (H shows more than 50% of control values) | –
2 | CN1C(=O)CCC(c2ccccc2F)=C1c1c(F)cc(F)cc1F [Compound 526] | L (L shows 50% or less of control values) | L (L shows 50% or less of control values) | –
3 | Cn1c(-c2c(F)cc(F)cc2F)c(-c2ccccc2F)ccc1=O [Compound 528] | H (H shows more than 50% of control values) | H (H shows more than 50% of control values) | –
4 | O=c1c(Cl)cc(-c2c(F)cccc2Cl)c(-c2c(F)cccc2F)n1CC(F)F [Compound 407] | H (H shows more than 50% of control values) | L (L shows 50% or less of control values) | –
5 | CCn1c(-c2c(F)cc(F)cc2F)c(-c2ccc(F)cc2Cl)ccc1=O [Compound 575] | – | – | Test A (control value class, blast on rice) (Magnaporthe grisea): H (H shows more than 50% of control values); Test F (control value class, late blight on tomato) (Phytophthora infestans; [3]): L (L shows 50% or less of control values)
6 | Cn1c(-c2c(F)cc(F)cc2F)c(-c2cc(F)ccc2F)ccc1=O [Compound 426] | H (H shows more than 50% of control values) | L (L shows 50% or less of control values) | –
7 | Cn1c(-c2c(F)cccc2F)c(-c2cc(F)ccc2F)ccc1=O [Compound 483] | H (H shows more than 50% of control values) | H (H shows more than 50% of control values) | –
8 | CCn1c(-c2c(F)cccc2F)c(-c2c(F)cccc2Cl)cc(Cl)c1=O [Compound 397] | H (H shows more than 50% of control values) | L (L shows 50% or less of control values) | –
9 | CCn1c(-c2c(F)cccc2F)c(-c2ccc(Cl)cc2F)cc(Cl)c1=O [Compound 417] | H (H shows more than 50% of control values) | L (L shows 50% or less of control values) | –
10 | CCn1c(-c2c(F)cc(OC)cc2F)c(-c2cccc(F)c2F)cc(Cl)c1=O [Compound 590] | – | – | Test A (control value class, blast on rice) (Magnaporthe grisea): H (H shows more than 50% of control values); Test F (control value class, late blight on tomato) (Phytophthora infestans; [3]): L (L shows 50% or less of control values)
11 | COc1cc(F)c(-c2c(-c3cccc(F)c3F)cc(Br)c(=O)n2C)c(F)c1 [Compound 563] | – | – | Test A (control value class, blast on rice) (Magnaporthe grisea): H (H shows more than 50% of control values); Test F (control value class, late blight on tomato) (Phytophthora infestans; [3]): L (L shows 50% or less of control values)
12 | CCn1c(-c2c(F)cccc2Br)c(-c2cc(OC)cc(OC)c2Br)ccc1=O [Compound 176] | – | – | Test A control value (Magnaporthe grisea; Blast on rice): H (H shows more than 50% of control values); Test F control value (Phytophthora infestans; [4]): H (H shows more than 50% of control values)
13 | Cc1cc(-c2cccc(F)c2Cl)c(-c2c(F)cc(F)cc2F)n(C)c1=O [Compound 505] | H (H shows more than 50% of control values) | L (L shows 50% or less of control values) | –
14 | COc1cc(OC)cc(-c2ccc(=O)n(C)c2-c2c(F)cccc2Cl)c1 [Compound 164] | – | – | Test A control value (Magnaporthe grisea; Blast on rice): H (H shows more than 50% of control values); Test F control value (Phytophthora infestans; [4]): L (L shows 50% or less of control values)
15 | CCn1c(-c2c(F)cc(OC)cc2F)c(-c2ccccc2Cl)cc(I)c1=O [Compound 822] | – | – | Test A (control value class) (Magnaporthe grisea; Blast on rice, control value=100{1-(n/3)}): H (H shows more than 50% of control values); Test F (control value class) (Phytophthora infestans; Late blight on tomato, 2.5 ml/pot, evaluated 5-10 days after inoculation): L (L shows 50% or less of control values)
